The target in test [1] is p27^Kip1 (pCMV-p27) (UniProt P46527). As to the kind of experiment: co-IP; Cos 7 cells cotransfected with HA-Myc and wt p27 or N100; lysates immunoprecipitated with p27 BD antibodies (recognise the N-terminal part of p27), western blot with HA antibodies. (Immunoblotting shows a protein as a band on a membrane.)
Test [2] addresses pCMV-p27aa1-87 (N100) (UniProt P46527). The description is as above.
Test [3] addresses p27^Kip1 (pCMV-p27) (UniProt P46527). As to the kind of experiment: co-IP; Cos 7 cells cotransfected with HA-tagged wt c-Myc or deletion derivatives and p27; lysates immunoprecipitated with p27 antibodies, western blot with HA antibodies.
Test [4] has the same target. Description: co-IP; HCT116 Fbxw7-/- cells transfected with Myc, p27 or Myc + p27; lysates immunoprecipitated with p27 C-19 or Gal4 control antibodies, immunoblot with pan-Myc antibodies.
Test [5] shares this target. Description: co-IP; Cos 7 cells cotransfected with c-Myc and wt p27 or N101; lysates immunoprecipitated with Myc or p27 C-19 antibodies (recognise the C-terminal part of p27), western blot with Myc antibodies.
Test [6] concerns the target pCMV-p27aa82–198 (N101) (UniProt P46527). Described as above.
Test [7] addresses p27-YN (UniProt P46527). Description: split reporter; BiFC in Cos7 cells cotransfected with c-Myc-YC and p27-YN, or bFos-YC and p27-YN as control; signal analysed under a UV microscope.

Chains of the proteins cited; added tags and fusions are not shown. Lines headed by an entry give the natural chain unless they say otherwise; changes in a name come on top. A line that says so, or that is headed by a name, gives the form on record, which may keep a tag or linker. Residues count along the entry.
UniProt P46527: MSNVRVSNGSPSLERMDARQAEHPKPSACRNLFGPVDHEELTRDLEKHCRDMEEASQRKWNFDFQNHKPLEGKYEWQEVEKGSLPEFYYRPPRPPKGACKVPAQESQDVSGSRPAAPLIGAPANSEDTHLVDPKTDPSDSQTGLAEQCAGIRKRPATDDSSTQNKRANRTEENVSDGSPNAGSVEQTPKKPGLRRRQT
pCMV-p27aa1-87 (N100): residues 1-87 of P46527
pCMV-p27aa82–198 (N101): residues 82-198 of P46527
c-Myc fused to the C-terminal fragment of YFP (MycYC) (P01106, residues 16-454): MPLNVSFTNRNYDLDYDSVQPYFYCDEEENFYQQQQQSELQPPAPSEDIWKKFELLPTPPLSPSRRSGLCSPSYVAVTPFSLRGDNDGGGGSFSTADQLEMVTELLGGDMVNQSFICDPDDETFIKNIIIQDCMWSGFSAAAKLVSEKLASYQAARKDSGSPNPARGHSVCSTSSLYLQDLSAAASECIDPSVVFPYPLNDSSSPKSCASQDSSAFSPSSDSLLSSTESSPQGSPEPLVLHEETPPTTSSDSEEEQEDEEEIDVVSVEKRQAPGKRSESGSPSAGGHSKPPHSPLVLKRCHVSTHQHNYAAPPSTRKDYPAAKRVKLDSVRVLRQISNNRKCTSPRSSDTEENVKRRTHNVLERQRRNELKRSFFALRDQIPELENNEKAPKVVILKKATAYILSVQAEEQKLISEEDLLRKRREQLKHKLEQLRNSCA
pCGN-HA-Myc95–439 (ΔN1) (P01106, residues 110-454): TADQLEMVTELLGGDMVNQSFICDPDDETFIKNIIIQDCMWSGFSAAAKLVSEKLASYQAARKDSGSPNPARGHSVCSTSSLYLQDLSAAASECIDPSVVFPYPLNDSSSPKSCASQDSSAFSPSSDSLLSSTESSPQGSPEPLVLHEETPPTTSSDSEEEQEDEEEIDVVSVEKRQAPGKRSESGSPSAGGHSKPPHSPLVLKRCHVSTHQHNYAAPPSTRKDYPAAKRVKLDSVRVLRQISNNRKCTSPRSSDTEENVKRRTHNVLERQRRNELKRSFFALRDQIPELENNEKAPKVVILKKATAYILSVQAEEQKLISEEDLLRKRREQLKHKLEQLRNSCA
pCGN-HA-Myc 148–439 (ΔN2) (P01106, residues 163-454): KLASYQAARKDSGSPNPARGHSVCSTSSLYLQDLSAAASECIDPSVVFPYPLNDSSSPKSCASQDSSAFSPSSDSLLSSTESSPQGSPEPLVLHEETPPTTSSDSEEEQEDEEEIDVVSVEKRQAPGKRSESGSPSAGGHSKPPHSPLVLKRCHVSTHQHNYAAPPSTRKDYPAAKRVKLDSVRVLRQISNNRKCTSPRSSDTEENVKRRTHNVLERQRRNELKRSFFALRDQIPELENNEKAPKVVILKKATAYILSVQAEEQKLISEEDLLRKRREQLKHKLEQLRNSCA
pCGN-HA-Myc 221–439 (ΔN3) (P01106, residues 236-454): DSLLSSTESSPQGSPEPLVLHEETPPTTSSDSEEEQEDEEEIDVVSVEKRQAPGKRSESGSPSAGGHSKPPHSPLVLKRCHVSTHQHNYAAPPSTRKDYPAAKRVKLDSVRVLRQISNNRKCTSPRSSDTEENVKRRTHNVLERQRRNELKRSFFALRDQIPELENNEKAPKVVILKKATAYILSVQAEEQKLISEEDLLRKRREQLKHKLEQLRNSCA
pCGN-HA-Myc 294–439 (ΔN4) (P01106, residues 309-454): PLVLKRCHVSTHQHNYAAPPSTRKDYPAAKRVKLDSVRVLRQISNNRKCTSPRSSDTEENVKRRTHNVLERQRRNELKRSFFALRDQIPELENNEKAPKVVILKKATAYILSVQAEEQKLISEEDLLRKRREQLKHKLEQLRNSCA

Results are given in words; binding and its absence hold for the method and conditions named. In cells and extracts the contact can be indirect. Some results given as binding are weak or reduced against the parent protein; the word gives no strength.

With “HA-tagged c-Myc (pCGN-HA-Myc) (from UniProt P01106-1 1-439)”, the binding result in test [1] is “binds”; in test [2], “no binding”; in test [3], “binds”.
Regarding “c-Myc (CMV-Myc expression vector) (from UniProt P01106-1 1-439)”, the binding entry in test [4], in test [5] and in test [6] was “binds” throughout.
For “c-Myc fused to the C-terminal fragment of YFP (MycYC) (from UniProt P01106-1 1-439)”, the binding result in test [7] was “binds”.
With “pCGN-HA-Myc95–439 (ΔN1) (from UniProt P01106-1 95-439) (domain or fragment)”, the binding entry in test [3] is recorded as “binds”.
Still for that read-out and setting: then “pCGN-HA-Myc 148–439 (ΔN2) (from UniProt P01106-1 148-439) (domain or fragment)”, with “binds”.
On the same count and under the same terms, then “pCGN-HA-Myc 221–439 (ΔN3) (from UniProt P01106-1 221-439) (domain or fragment)”, with “binds”.
Turning to “pCGN-HA-Myc 294–439 (ΔN4) (from UniProt P01106-1 294-439) (domain or fragment)”, the binding result in test [3] is reported as “binds”.

Source of the values: PMC4823075.
